# Assay results published in the antibiotic and cytotoxicity screens of Wong et al. (2023).
# The list shows a part of the results.
# Experiments:
# [1] = system: HSkMC (human skeletal muscle cells); assay: cytotoxicity call (relative viability < 0.9); details: 10 µM
# [2] = system: HepG2; assay: cytotoxicity call (relative viability < 0.9); details: 10 µM
# [3] = system: S. aureus RN4220; assay: growth inhibition call (relative growth <= 0.2); details: 50 µM
SMILES,cytotoxicity call [1],cytotoxicity call [2],growth inhibition call [3]
COc1cccc(OC)c1C(=O)NCCCO,inactive,inactive,inactive
COc1ccc([C@@H]2CC(=O)c3c(O)cc(O[C@@H]4O[C@H](CO[C@@H]5O[C@@H](C)[C@H](O)[C@@H](O)[C@H]5O)[C@@H](O)[C@H](O)[C@H]4O)cc3O2)cc1O,inactive,inactive,inactive
C[C@@H]1CN([C@H](C)CO)C(=O)c2cccc(NC(=O)c3ccc(-c4nccs4)cc3)c2O[C@@H]1CN(C)Cc1ccc2c(c1)OCO2,inactive,inactive,inactive
Cc1cc(C(=O)Nc2cccc3c2O[C@H](CN(C)Cc2ccc(Oc4ccccc4)cc2)[C@H](C)CN([C@H](C)CO)C3=O)n(C)n1,inactive,inactive,inactive
CNC[C@H]1OCCCC[C@H](C)Oc2ccc(NS(=O)(=O)c3cn(C)cn3)cc2C(=O)N([C@H](C)CO)C[C@@H]1C,inactive,inactive,inactive
C[C@H]1CCCCO[C@H](CN(C)C(=O)Cc2ccccc2)[C@@H](C)CN([C@@H](C)CO)C(=O)c2cc(NC(=O)Nc3ccccc3)ccc2O1,inactive,inactive,inactive
C[C@H]1CN([C@@H](C)CO)C(=O)c2cc(NS(=O)(=O)c3cn(C)cn3)ccc2O[C@@H]1CN(C)C(=O)Nc1ccccc1,inactive,inactive,inactive
COc1ccc(NC(=O)N(C)C[C@@H]2Oc3cc(C#CCN(C)C)ccc3S(=O)(=O)N([C@@H](C)CO)C[C@H]2C)cc1,inactive,inactive,inactive
Cc1ccc(S(=O)(=O)N(C)C[C@@H]2Oc3ccc(NC(=O)Cn4cnnn4)cc3CC(=O)N([C@H](C)CO)C[C@H]2C)cc1,inactive,inactive,inactive
C[C@H]1CCCCO[C@@H](CN(C)Cc2ccc(C(=O)O)cc2)[C@@H](C)CN([C@@H](C)CO)C(=O)c2cc(NC(=O)c3ccccc3)ccc2O1,inactive,inactive,inactive
Cc1ccccc1-c1ccc2c(c1)O[C@H](CN(C)C(=O)Nc1ccc(C(F)(F)F)cc1)[C@@H](C)CN([C@@H](C)CO)S2(=O)=O,inactive,inactive,inactive
C[C@H](CO)N1C[C@H](C)[C@H](CN(C)Cc2ccc(Oc3ccccc3)cc2)OCc2ccccc2-c2ccccc2C1=O,inactive,inactive,inactive
C[C@H]1CN([C@@H](C)CO)C(=O)c2cc(C#CCN(C)C)cnc2O[C@@H]1CN(C)S(=O)(=O)c1ccccc1,inactive,inactive,inactive
CCOCCOCCOc1oc(C(=O)NC2CCCCC2)c(-c2ccc(Cl)cc2)c1S(=O)(=O)c1ccc(Cl)cc1,inactive,inactive,inactive
C[C@@H]1CCCCO[C@@H](CN(C)Cc2ccc(C(=O)O)cc2)[C@H](C)CN([C@@H](C)CO)C(=O)c2cc(NS(=O)(=O)c3ccccc3)ccc2O1,inactive,inactive,inactive
Cc1noc(C)c1NC(=O)Nc1ccc2c(c1)C(=O)N([C@@H](C)CO)C[C@H](C)[C@@H](CN(C)S(=O)(=O)c1ccc(Cl)cc1)OCCCC[C@H](C)O2,inactive,inactive,inactive
C[C@@H]1CN([C@@H](C)CO)C(=O)Cc2cc(NC(=O)Nc3ccc4c(c3)OCO4)ccc2O[C@H]1CN(C)C(=O)Nc1cccc2ccccc12,inactive,inactive,inactive
COC(=O)c1c(C)cc(OC(=O)c2c(C)cc(O)c(C=O)c2O)c(C)c1O,inactive,inactive,inactive
C[C@H]1CN([C@@H](C)CO)C(=O)Cc2cc(NC(=O)Nc3cccc4ccccc34)ccc2O[C@@H]1CN(C)C(=O)Nc1ccc(F)cc1,inactive,inactive,inactive
C[C@@H]1CN([C@H](C)CO)C(=O)CCCn2nncc2CO[C@H]1CN(C)Cc1cccc2c1OCCCO2,inactive,inactive,inactive
C[C@@H]1CN([C@H](C)CO)C(=O)c2cc(NC(=O)NC3CCCCC3)ccc2O[C@@H](C)CCCCO[C@H]1CN(C)S(=O)(=O)c1ccc(Cl)cc1,inactive,active,inactive
C[C@@H]1CN([C@@H](C)CO)C(=O)CCCn2nncc2CO[C@H]1CN(C)Cc1cccc2c1OCCCO2,inactive,inactive,inactive
COc1ccc(NC(=O)Nc2ccc3c(c2)C(=O)N([C@H](C)CO)C[C@H](C)[C@H](CN(C)S(=O)(=O)c2ccccc2)OCCCC[C@@H](C)O3)cc1,inactive,inactive,inactive
C[C@H]1CN([C@@H](C)CO)C(=O)c2cccc(NC(=O)Nc3ccc(F)cc3)c2O[C@@H]1CN(C)S(C)(=O)=O,inactive,inactive,inactive
